Measured values reported in PubChem BioAssay AID445 (National Center for Advancing Translational Sciences (NCATS), 2006).
The campaign covered roughly 110,000 compounds. About 40 (0.04%) were called active. Inconclusive results, whose numbers are uncertain, are shown with a selection of clear calls. Calls come from the whole dose curve; as a rule, active = well fitted curve in the direction sought with a large enough effect in the signal ratio (not every such curve was filed as active); inconclusive = small, poorly fitted or top-dose-only effect, or a change in a side signal; inactive = flat fitted curve, though single readings scatter; the % refers to the signal ratio. Where the call is inconclusive, the potency comes from a doubtful curve fit.

Assay: IkB Signaling;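 for IkBa stabilization activation: 0% = basal untreated cells and 100% = reference inhibitor full response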
Conditions: ABC-DLBCL IkBa-CBG/CBR dual luciferase ratio (green luciferase fused to IkBa over red control in OCI-Ly3 lymphoma cells), 4 h; IkBa stabilization activation: at 57.1 µM (top of the series), scaled: untreated 0%, proteasome inhibitor 100% unless noted
Outline: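 In this assay, an IκBα–CBG68 fusion accumulates when IKK-driven degradation is blocked; native CBR normalizes for cell number. OCI-Ly3 cells were treated 4 h with compound and doxycycline, then green and red light read after Chroma-Glo addition.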
Potency is the fitted concentration of half-maximal effect.

Structure (SMILES)	IkBa stabilization activation	Potency
COc1ccc2cc(-c3nc(-c4ccc(N(C)C)cc4)no3)c(=O)oc2c1	inactive	
COc1ccc(-c2nnc(CSc3nc4ccccc4c(=O)n3C)o2)cc1OC	inactive	
COc1ccccc1CC(=O)Nc1ccc(O)cc1C(=O)O	inactive	
CCN(CC)C(=O)Cn1c(=O)n(-c2ccc(Cl)cc2)c(=O)c2c3c(sc21)CCCCC3	inconclusive: 3.16% [signal inhibitor]	
COc1ccc(NS(=O)(=O)c2ccc3c(c2)CC(C)N3C(=O)C2CCC2)cc1OC (stereo unspecified)	inconclusive: -1.8% [signal inhibitor]	
Cc1ccc(NS(=O)(=O)c2ccc3nc(-c4ccccc4)[nH]c3c2)cc1Cl	inconclusive: -3.34% [signal inhibitor]	
COc1ccc(Br)cc1CNC(=O)C1CCN(c2nnc(-n3cccc3CNc3ccc(C)cc3)s2)CC1	inconclusive: 0.366% [signal inhibitor]	
CSc1nn(CC(=O)Nc2ccc(C)cc2C)c(N)c1S(=O)(=O)c1ccc(Cl)cc1	inconclusive: 2.14% [signal inhibitor]	
O=S(=O)(Nc1nc2n(n1)C(c1ccc(F)cc1)C=C(c1ccc(Cl)cc1)N2)c1ccccc1 (stereo unspecified)	inconclusive: 1.78% [signal inhibitor]	
CN(C)CCN(c1ccccn1)c1ccccn1	inactive: -0.366% [at 11.4 µM, scaled: untreated 0%, proteasome inhibitor 100%]	
COc1cc2c(C(=O)N3CCN(c4ccc(F)cc4)CC3)cn(CC(C)C)c(=O)c2cc1OC	inconclusive: 1.04% [signal inhibitor]	
COc1ccc2c(c1)c1ccccc1n2C	inactive	
O=C(NCCN1CCOCC1)c1cc(-c2ccc(O)cc2)on1	inactive	
CCOc1ccccc1NC(=O)C1CCCN(S(=O)(=O)c2cccs2)C1 (stereo unspecified)	inconclusive: -0.274% [signal inhibitor]	
O=c1c2c(nc3cc(-c4ccc(F)cc4)[nH]n13)CCCC2	inconclusive: 5.84% [signal inhibitor]	
COc1ccc(N2CCN(C(=O)c3ccc4c(c3)CCN4S(=O)(=O)c3ccccc3)CC2)cc1	inconclusive: 0.533% [signal inhibitor]	
Cc1c(C(=O)N(C)Cc2ccccc2)sc2nc(-c3ccc(F)cc3)cn12	inconclusive: 0.437% [signal inhibitor]	
COc1cccc(-c2cc(C(=O)NCc3ccccc3)no2)c1	inconclusive: 5.83% [signal inhibitor]	
CCOC(=O)CNC(=O)CSc1nnc(-c2ccco2)n1Cc1ccco1		inconclusive: 20 µM [signal inhibitor, partial curve]
CC(NCc1ccc2c(c1)n(C)c(=O)n2C)c1ccccc1 (stereo unspecified)	inactive	
Cc1cccc(OCC(=O)Nc2ccc3c(c2)OCCO3)c1	inactive	
Cc1ccc(-c2cn3c(n2)sc2cc(C(=O)NC4CCCCCC4)ccc23)cc1	inconclusive: 2.35% [signal inhibitor]	
COCCCNC(=O)C1CCN(Cc2cc3ccccc3n2Cc2cccc(Cl)c2)CC1	inconclusive: 0.461% [signal inhibitor]	

Structure (SMILES)	IkBa stabilization activation	Potency
Cc1ccc(S(=O)(=O)Nc2ccc(Br)cc2/C=N/n2cnnc2)cc1	inconclusive: 1.18% [signal inhibitor]	
Cc1noc2ncnc(NCCc3ccccc3)c12	inconclusive: -1.93% [signal inhibitor]	
CCC12CN3CC(CC)(CN(C1)C3c1c[nH]c3ccccc13)C2=O (stereo unspecified)	inactive	
CCOCCc1nn2c(=O)cc(COC(=O)c3ccccc3NC(=O)c3ccccc3F)nc2s1	inconclusive: 3.26% [signal inhibitor]	
CCOc1ccc(C(=O)c2cn(CC(=O)Nc3ccc(OC)cc3)c3cc4c(cc3c2=O)OCO4)cc1	inactive	
O=C(NCC(c1ccc2c(c1)OCO2)N1CCN(c2ccccc2)CC1)C(=O)Nc1ccc(F)cc1 (stereo unspecified)		inconclusive: 1 µM [signal inhibitor, partial curve]
CCS(=O)(=O)N1CC(=O)N(c2cccc(Cl)c2)C(C)(C(=O)NC2CCCCCC2)C1 (stereo unspecified)	inactive	
Cc1oc(-c2ccc(C(=O)NCCC(C)C)cc2)nc1CS(=O)(=O)c1ccccc1	inactive	
O=C(NCc1cccs1)c1cc2ccccc2o1	inconclusive: 5.97% [signal inhibitor]	
CCCCC(=O)Nc1cccc(-c2cn3ccsc3n2)c1	inactive	
CN(C)c1ccc(CN(Cc2ccco2)C(=O)COc2ccc(F)cc2)cc1	inconclusive: 2.65% [signal inhibitor]	
Cc1ccc(NC(=O)N2CC3CCCN3c3ccccc32)cc1C (stereo unspecified)	inconclusive: 2.52% [signal inhibitor]	
Cc1nc2sc(C)c(C)n2c(=O)c1S(=O)(=O)N1CCN(c2ccccc2F)CC1	inconclusive: 1.56% [signal inhibitor]	
CS(=O)(=O)N1CCc2cc(C(=O)OCC(=O)c3ccccc3)ccc21	inactive	
Cc1c(C(=O)N(Cc2ccc(N(C)C)cc2)CC2CCCO2)oc2ccccc12 (stereo unspecified)	inconclusive: 1.37% [signal inhibitor]	
CCn1c(SCc2nc3ccccc3c(=O)[nH]2)nc2ccccc2c1=O	inactive	
Cc1cccc(N2CCN(C(=O)c3ccc4nc(N5CCC(C)CC5)sc4c3)CC2)c1C	inconclusive: 5.51% [signal inhibitor]	
CCCSc1ncc(Cl)c(C(=O)Nc2ccc(S(=O)(=O)N3CCCC(C)C3)cc2)n1 (stereo unspecified)	inconclusive: 0.0888% [signal inhibitor]	
COC(=O)N1CCC[C@@]2(CCN(C(c3ccccc3)c3ccccc3)C2)C1	inactive: 3.94% [at 11.4 µM, scaled: untreated 0%, proteasome inhibitor 100%]	
CCc1nnc(SCc2nc(-c3ccccc3Cl)oc2C)c2cc3sc(C)cc3n12	inconclusive: -2.4% [signal inhibitor]	
COc1ccc2[nH]cc(CCNC(=O)Nc3ccccc3)c2c1	inconclusive: -0.266% [signal inhibitor]	
COc1ccc(CN(C(=O)c2ccccc2F)C2CCS(=O)(=O)C2)cc1 (stereo unspecified)	inactive	
Cc1ccc(NC(=O)CN2C(=O)c3cccnc3Sc3ccccc32)cc1C	inconclusive: 5.77% [signal inhibitor]	
